The RNAGym collection of RNA variant scans (doi:10.1073/pnas.2313332121)
Variants at the floor of the assay are shown more often than the library holds them.

B1: TPR 5TU (parent)
chain: GGAUCUUCUCGAUCUAACAAAAAAGACAAAUCUGCCACAAAGCUUGAGAGCAUCUUCGGAUGCAGAGGCGGCAGCCUUCGGUGGCGCGAUAGCGCCAACGUUCUCAACUAUGACACGCAAAACGCGUGCUCCGUUGAAUGGAGUUUAUCAUG

Variants of: B1
Assay: polymerase ribozyme fitness, log enrichment relative to wild type (log ratio); higher = more active; in vitro selection for triplet polymerase activity
Summary of the method: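 PCR was used to build mutant libraries for each subunit of a heterodimeric triplet polymerase ribozyme, which were then transcribed. A single in vitro selection round, in triplicate, used a frozen incubation at −7 °C and recovered extended constructs by gel excision, streptavidin beads and RT-PCR. Fitness is the logarithm of genotype enrichment relative to wild-type enrichment, averaged over replicates with inverse-variance weights. The logarithm is base 2, and after Illumina sequencing only genotypes with ≥10 input reads and ≥1 read per output were kept.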

Variant | polymerase ribozyme fitness (log ratio)
A17C A19U A29C C32U C96U A97U A119U A120C | ≤ -4.2
A17C A21C C72G C75G C93G A147C U151G | ≤ -4.2
A17C A21U A29U U53G A73G G94A | ≤ -4.2
A17C A23U A91U G112U G140C | ≤ -4.2
A17C A23U C35A G86U G94A C99A U109G U151C | ≤ -4.2
A17C A23U G59U G84A U90C U151A | ≤ -4.2
A17C A23U U104C | ≤ -4.2
A17C A26G A41C C54A C72U C87A G100C G143U | ≤ -4.2
A17C A26G C96U G140A | ≤ -4.2
A17C A26U A49C | ≤ -4.2
A17C A26U C69A C79A C85A G94A A147U | ≤ -4.2
A17C A28C C93G C131U | ≤ -4.2
A17C A28C G68U C85U G126A | ≤ -4.2
A17C A28U C43A C76A G83C C93A | ≤ -4.2
A17C A28U U44C A52U G94U A97G A142G | ≤ -4.2
A17C A29C A66U G67A A91G C96U A115G C116A | ≤ -4.2
A17C A30U A52U | ≤ -4.2
A17C A30U G84C C85A C103G | ≤ -4.2
A17C A39U A47C A137G C149A | ≤ -4.2
A17C A39U G58A C95A G141C | -2.82
A17C A41C C87U C108A | ≤ -4.2
A17C A47G A52G G84C C108A U144G | ≤ -4.2
A17C A66G C72A C96U U130A G140C A142G | ≤ -4.2
A17C C27A C103G A107G C116A G143U | ≤ -4.2

Variant | polymerase ribozyme fitness (log ratio)
A17C C35A G68C C69A A91U A106C | ≤ -4.2
A17C C35U G74A C76A U78G | ≤ -4.2
A17C C36U G42C C76G G94U U134C U146C | ≤ -4.2
A17C C38A A47G G92C | -0.622
A17C C38A U55G G86U C116G A122G | -2.93
A17C C54A G71C G84A C93G U139A | ≤ -4.2
A17C C57A C114U | -1.86
A17C C57G C99G C103G | ≤ -4.2
A17C C75U U127A A147G | ≤ -4.2
A17C C76G A113C C118U | ≤ -4.2
A17C G65C G71A G94A | ≤ -4.2
A17C G92C | 0.012
A17C G133A | -3.15
A17C G133A U144A A147C | -3.99
A17C U31C G50C C51A | -0.997
A17C U31G C43G U53A A73G U90A G92A C116G | ≤ -4.2
A17C U44G C85G C93U G141A | ≤ -4.2
A17C U44G G88A C95G C103U G141C | ≤ -4.2
A17C U45A G84U C132A G136U | ≤ -4.2
A17C U56A C76A C131A U134G | ≤ -4.2
A17C U102A | -0.663
A17G A19U A29U G48C A52C G83A C131G U148C | ≤ -4.2
A17G A20U U44A A60C A91C C129A | ≤ -4.2
A17G A21C U44A A91C C108U | ≤ -4.2

Variant | polymerase ribozyme fitness (log ratio)
A17G A21G C57U C96A A137U A138G | ≤ -4.2
A17G A21G C96G | 0.392
A17G A21U A26U A29U U53C C93G C96A C116G | ≤ -4.2
A17G A21U C27U C54U U90C G94A C131U | ≤ -4.2
A17G A22C U61A G84U C96U U109A U111A G141A | ≤ -4.2
A17G A23C A97U C114U | ≤ -4.2
A17G A23U A26U C116G A138C A142C | ≤ -4.2
A17G A23U G92A C118U | ≤ -4.2
A17G A24C A39G A52C U56A G67A A98U C103G G133A | ≤ -4.2
A17G A26C U55A C79U G80C A91U A107G | ≤ -4.2
A17G A26G U55A A73G C93A G100C C131A G133C U148A | ≤ -4.2
A17G A28U G71A A121G | ≤ -4.2
A17G A29C C32G G48C | ≤ -4.2
A17G A29C C93G C95G A137U A138G | ≤ -4.2
A17G A29G C36G C38G G84U A137U U145A | ≤ -4.2
A17G A29U G67U G100A C123G C132G | ≤ -4.2
A17G A30C A52G U53A C79A C93G A120U G128A | ≤ -4.2
A17G A30U A73G C76U C85G U101G C123A G124U | ≤ -4.2
A17G A30U C57G G141U | ≤ -4.2
A17G A37G U44G G68C A89U C96U G117U A142G | ≤ -4.2
A17G A39C A40C A73G G94C U134G | ≤ -4.2
A17G A39C U82G C85U A113U | ≤ -4.2
A17G A39G C75U C87G C93U U102G | ≤ -4.2
A17G A39G U56A C85G A115G | -3.92

Variant | polymerase ribozyme fitness (log ratio)
A17G A39U C43U | ≤ -4.2
A17G A40U U55A U56A C103A A119G U134A | ≤ -4.2
A17G A49C A73G G86U | ≤ -4.2
A17G A113C | -2.83
A17G C18G A20U U53A C93A C96U C125A | ≤ -4.2
A17G C27A | ≤ -4.2
A17G C27G A66G A107G A115C | ≤ -4.2
A17G C27G A73G C95A C99U U104G G117U U148C | ≤ -4.2
A17G C35A A40C G67U C96A C129G | ≤ -4.2
A17G C36A C99G A122C U151C | ≤ -4.2
A17G C38A U45A C69A C85U A142C C149U U151G | ≤ -4.2
A17G C51A C79U | ≤ -4.2
A17G C51U C75A G86A A113C C132A U144G | ≤ -4.2
A17G C51U U55G C79U G83U C95A C118G U145C | ≤ -4.2
A17G C76U | -0.119
A17G C85G G126U U127G G141C | ≤ -4.2
A17G C99U | -0.271
A17G G48U C87U A89U A119C | -2.96
A17G G58A | 1.26
A17G G59U G80A C85A | -0.447
A17G G62A G86A A89U G112A G143A | ≤ -4.2
A17G G62C G81A | -1.76
A17G G86U A97U | -2.08
A17G G92A A120G A122G C125A | ≤ -4.2

Variant | polymerase ribozyme fitness (log ratio)
A17G G143U | -2.24
A17G U33G C79G G84A U134G | ≤ -4.2
A17G U44A A91G | ≤ -4.2
A17G U44C U61A | ≤ -4.2
A17G U53A C75G A91G A113G G143A | ≤ -4.2
A17U A19C A23C A52G U130A U144G | ≤ -4.2
A17U A20C A47C A49U C93A C103A U104C | ≤ -4.2
A17U A20C G50A C79A C87G C114A U135A | ≤ -4.2
A17U A20U A37U G48U C96A U101C | ≤ -4.2
A17U A21C G88U C93A U101C C105G C116U | ≤ -4.2
A17U A21G G48C U111G C118A | ≤ -4.2
A17U A21U G50C C54G C57A A60G C87G G100C G140A U151G | ≤ -4.2
A17U A22C A29C G48C C54U | ≤ -4.2
A17U A22C C76U G86U A91C U144G | ≤ -4.2
A17U A22G A39C C76U A91G U139C A150C | ≤ -4.2
A17U A22U A24U C51G U56A A91G A97G A110U C116A | ≤ -4.2
A17U A22U C51U U55A C75A C85U U101A C114U A115G G124A | ≤ -4.2
A17U A23G A73G U90C C132U U134A U146G | ≤ -4.2
A17U A23G C87A C99U A138U | ≤ -4.2
A17U A23U A37G C43U U56A G94C A119C G141A | ≤ -4.2
A17U A24C U53G U55A C57U G92C G133C | ≤ -4.2
A17U A24U C36A G59A U77G G83A A98U C105U C116G | ≤ -4.2
A17U A26U A41C G62C C87U A107U | ≤ -4.2
A17U A26U C75U C76G A91U | ≤ -4.2

Variant | polymerase ribozyme fitness (log ratio)
A17U A26U U45A A64G C85G A138G G143U | ≤ -4.2
A17U A28G G59A G68A G81U G84A C87A U146C | ≤ -4.2
A17U A28U C32A A52G C54A A73G G88A G143C | ≤ -4.2
A17U A28U C38U | ≤ -4.2
A17U A29C U31A U127G | ≤ -4.2
A17U A29G G50C G83U | ≤ -4.2
A17U A29U U55A C69A C75G C87A G94A C95U | ≤ -4.2
A17U A30G G42U G81C C85U A122U | ≤ -4.2
A17U A37C A60G C93U C96G A97G A107G | ≤ -4.2
A17U A37U G59C G67C A91U A113C C123G | ≤ -4.2
A17U A39C A60C G86C C87A | ≤ -4.2
A17U A39G C57G G68U G83U A150G | ≤ -4.2
A17U A39G C99G A110C C125U A138C | ≤ -4.2
A17U A39U A98G G133C | ≤ -4.2
A17U A40U A47G U78C A89C U134A | ≤ -4.2
A17U A47C G83A A98U G133A U148C | ≤ -4.2
A17U A52C A64C G133A A138C | ≤ -4.2
A17U A52C A66G C85G | ≤ -4.2
A17U A52C C75G C93U A138C C149G | ≤ -4.2
A17U A52C G80C C93A G94U U101G A142G | ≤ -4.2
A17U A64G A73U U102G A121U | ≤ -4.2
A17U C18U A20G C93U A115G | -4.19
A17U C18U C96G C125U | -1.1
A17U C32G G58U U61G G86U C93A C108U G128C A142U U145C | ≤ -4.2

Variant | polymerase ribozyme fitness (log ratio)
A17U C35A C63U A142C A150C | ≤ -4.2
A17U C35A C69G U78G G84A A91G C103A | ≤ -4.2
A17U C36G G67U C87G C95G C99A C103A | ≤ -4.2
A17U C36G U61A C76G C103U A119U G141C | ≤ -4.2
A17U C36U C85A U135C | ≤ -4.2
A17U C38U C57U U78C G80U C87A U90C C116G U146C | ≤ -4.2
A17U C54A U90G C96A C118G | ≤ -4.2
A17U C57G C69A | -2.58
A17U C57U G71A U78G G81U C96U A137G A142U | ≤ -4.2
A17U C75G C93A U134A | ≤ -4.2
A17U C85A A107G G128U U134A | ≤ -4.2
A17U C85A C96G | -2.34
A17U C85A C96U A137U U144A | ≤ -4.2
A17U C87U | -1.75
A17U C96A G140C A142G | ≤ -4.2
A17U G25C | -4.13
A17U G42U C99A C105U A120U | ≤ -4.2
A17U G42U G48A C54U U61G U77A G86A A137U | ≤ -4.2
A17U G46C U90G | ≤ -4.2
A17U G58C C93A U127A | ≤ -4.2
A17U G58C C95U C99A | -1.96
A17U G58C C118G A120G | ≤ -4.2
A17U G59A G74A G100A G126U | ≤ -4.2
